PubChem BioAssay AID463173 (ICCB-Longwood Screening Facility, Harvard Medical School, 2010)
About 4,300 (8.3%) of roughly 52,000 compounds were called active. No stated cut-off is given here; in the data, active means survival mostly below about 52% (no sharp cut-off); inactive means mostly above about 56%. This is one part of the list.

The compounds below were run on DeltatarO mutant (assay: S. aureus survival, RN4220 and DeltatarO strains – OD600, teichoic acid synthesis inhibitors, primary screen (AID 463173)). Conditions: S. aureus RN4220 wild type/DeltatarO growth, OD600, 18 h, hits give low values, screened at 18.75 µg/mL (by protocol).

| Compound | survival |
| --- | --- |
| COc1ccc2sc(N(Cc3cccnc3)C(=O)C3CCCCC3)nc2c1 | inactive: 72% |
| O=C(Cn1c(=O)n(CC2CCC(C(=O)NCCc3ccccc3)CC2)c(=O)c2ccccc21)Nc1ccccc1 (centres undefined) | inactive: 107% |
| COc1cccc(-n2c(SCC(=O)Nc3c(C)cc(C)cc3C)nc3c([nH]c4ccccc43)c2=O)c1 | inactive: 95% |
| Cc1ccc(C(c2nnnn2CS(=O)(=O)c2ccc(C)cc2)N2CCCC2)cc1 (centres undefined) | inactive: 98% |
| COC(=O)c1cc2oc3ccccc3c2n1CC(=O)Nc1ccc(Cl)cc1F | inactive: 113% |
| O=C(Nc1ccccc1)N(C1=NCCCCS1)c1ccccc1 | inactive: 76% |
| COc1cccc2c1cc1c(=O)n(CC(=O)NCc3ccc(C)o3)nc(C)n12 | inactive: 87% |
| COc1cccc(CNC(=O)c2ccc(-c3nc(COc4ccccc4)c(C)o3)cc2)c1 | inactive: 89% |
| Cc1ccc(CCNC(=O)c2cc3c(s2)-c2c(C)cccc2OC3)cc1 | inactive: 93% |
| O=C(Nc1sc2c(c1C(=O)NCc1cccnc1)CCCC2)c1cc(=O)c2ccccc2o1 | inactive: 63% |
| Cc1ccc2nc(COc3ccccc3NC(=O)C(C)(C)C)cc(=O)n2c1 | inactive: 102% |
| CCOc1ccc(C2CC(c3c(O)n(C4CCCCC4)c(=O)[nH]c3=O)=Nc3ccccc3S2)cc1 (centres undefined) | inactive: 47% |
| O=C(Cc1ccc(F)cc1)NCc1ccc2c(c1)CCN2C(=O)c1ccc(F)cc1 | inactive: 74% |
| O=C(CSc1nnc2ccc3ccccc3n12)Nc1ccccc1Cl | inactive: 76% |
| Cc1ccc(NS(=O)(=O)c2ccc(-n3cccn3)cc2)cc1Cl | inactive: 84% |
| CCOC(=O)N1CCc2c(sc3c2c(=O)n(-c2ccccc2C(F)(F)F)c(=O)n3Cc2ccccc2C)C1 | inactive: 104% |
| CN1C(=O)/C(=C/C=C2/Sc3ccccc3N2CCO)SC1=S | inactive: 108% |
| CCC(=O)N1CCc2cc(S(=O)(=O)NC(CC(C)C)C(=O)NCCc3ccccc3)ccc21 (centres undefined) | inactive: 121% |
| COc1ccc(CCNC(=O)C(=O)NCC(c2ccco2)S(=O)(=O)c2cccs2)cc1OC (centres undefined) | inactive: 89% |
| CCOC(=O)c1c(-c2ccccc2)oc2ccc(N(C(C)=O)S(=O)(=O)c3ccc(CC)cc3)cc12 | inactive: 69% |
| O=C(c1nc(-c2ccc(Cl)cc2)n2c1CCCCC2)N1CCN(c2ccccc2)CC1 | inactive: 88% |
| O=C(COc1ccccc1-c1nc(-c2ccccc2)no1)Nc1cccc([N+](=O)[O-])c1 | active: 34% |
| Cc1cccc(-c2nc(CCNC(=O)Cc3ccccc3)cs2)c1 | active: 17% |
| COc1ccc(CCNC(=O)c2ccc3c(c2)N(Cc2ccc(F)cc2)C(=O)CS3)cc1OC | inactive: 117% |
